The values below come from ChEMBL document CHEMBL4888484, “Replenishing the malaria drug discovery pipeline: Screening and hit evaluation of the MMV Hit Generation Library 1 (HGL1) against asexual blood stage Plasmodium falciparum ,using a nano luciferase reporter read-out” (2022).

Molecules are shown by their SMILES. Hit rate of the full screen: of about 150,000 compounds, about 540 (0.36%) showed an effect of 50% or more. The list shows a part of the results.

For this assay, the system named is Plasmodium falciparum. The assay is described as follows: Primary screen in NF54 nanoGlo assay, in single point, at 2uM, 72h; a lower Z score goes with more inhibition. The settings on record: timepoint 72 hour. It is filed as functional, Erythrocyte.
Turning to `Cc1nn(-c2ccc(Cl)cc2)cc1C(=O)NC[C@H](C)C(=O)O`, the “% Inhibition” value is listed as -13% and the Z score turned out to be 1.37.

With `COc1ccccc1NC(=O)c1cccc(C(=O)Nc2ccccc2OC)n1`, the “% Inhibition” value is recorded as -7% and the Z score is given as 0.75.

`Cc1cnc(C2CCC2)n1CCNC(=O)c1ccnn1C`: the “% Inhibition” value is listed as 2% and the Z score is reported as -0.19.

Regarding `CC(C)(C)C1CCC2(CC1)CC(=O)c1ccc(OCC(=O)N3CCC(O)CC3)cc1O2` (centres undefined), the “% Inhibition” value is on record as 1% and the Z score is recorded as -0.08.

On to `Oc1ccccc1-c1oncc1-c1ccc2c(c1)OCCO2`, for which the “% Inhibition” value is given as -14% and the Z score came to 2.71.

`COc1cccc(CC(=O)Nc2ccc3[nH]c(=O)[nH]c3c2)c1`: the “% Inhibition” value is on record as -5% and the Z score worked out at 0.62.

With `C[C@H](NC(=O)c1cn(CCCc2ccccc2)nn1)c1ccc(F)cc1`, the “% Inhibition” value is listed as -13% and the Z score is recorded as 1.17.

`Cc1noc(C2CN(C(=O)c3cc(-c4ccccc4)on3)C2)n1`: the “% Inhibition” value is reported as -3% and the Z score was found to be 0.57.

Regarding `CCOc1ccccc1C(=O)N1CCc2ncncc2C1`, the “% Inhibition” value is -9% and the Z score is reported as 1.48.

As for `O=C(c1cc(-c2ccccc2)n2nc(-c3ccccc3)cc2n1)N1CCN(c2ccccc2F)CC1`, the “% Inhibition” value is on record as 3% and the Z score is given as -0.35.

Take `Cc1nc2n(n1)C(c1cccs1)CC(C)N2` (centres undefined): the “% Inhibition” value amounted to 24% and the Z score is -2.75.

`CCc1nc(OC)ccc1NC(=O)c1sc([C@H]2CCOC2)nc1C`: the “% Inhibition” value was determined as 0% and the Z score is -0.05.

As for `CC1(C)C[C@@H](C(=O)O)N(C(=O)OC(C)(C)C)C1`, the “% Inhibition” value is -12% and the Z score amounted to 2.27.

With `COc1cc(C)ccc1OCCc1c(C)noc1C`, the “% Inhibition” value is -6% and the Z score was 0.74.

`O=C(NCC(O)COCC1CC1)NC1CC1c1cccc(Cl)c1` (centres undefined): the “% Inhibition” value is listed as -11% and the Z score is listed as 1.11.

On to `O=C(Nc1cccc(-c2noc(-c3cnccn3)n2)c1)c1cccs1`, for which the “% Inhibition” value is given as -28% and the Z score came out at 4.27.

Turning to `CO[C@@H](C)c1noc(CN2CCN(c3cccc(OCc4ccccc4Cl)c3)CC2)n1`, the “% Inhibition” value is on record as -4% and the Z score is 0.59.

With `Clc1ccc([C@@H]2CN(Cc3noc(-c4ccccc4)n3)CCO2)cc1`, the “% Inhibition” value is -5% and the Z score is 0.61.

Regarding `COc1ccnc(N2CCN(c3nnc(C)o3)CC2)n1`, the “% Inhibition” value is -14% and the Z score was 1.28.

On to `CNc1cc(C(=O)N2CC[C@@H]3OCc4cccc(c4)Oc4ccc(cc4)CCC(=O)N(CCCO)CC(=O)N[C@H]3C2)ccn1`, for which the “% Inhibition” value is given as -8% and the Z score was determined as 1.52.

In the case of `O=S(=O)(CCN1CCC[C@H](Cn2cncn2)C1)C(F)(F)F`, the “% Inhibition” value is listed as -3% and the Z score was 0.47.

`C[C@H]1CN(C(=O)c2cccc(=O)[nH]2)CCN1C1CCCC1`: the “% Inhibition” value was -7% and the Z score was determined as 1.1.

`Cc1n[nH]c(C(=O)N2C[C@H](C)[C@@](O)(C3CC3)C2)c1Cl`: the “% Inhibition” value was -9% and the Z score was 1.76.

For `COC(=O)c1cc(C2CC2)nc2c1c(=O)n(Cc1ncc(C)c(OC)c1C)c(=O)n2-c1ccccc1`, the “% Inhibition” value was -15% and the Z score was found to be 1.92.

As to `Cc1cc(OCc2cc(C(=O)N3CC[C@H](O)C3)no2)cc(C)c1Cl`, the “% Inhibition” value was -7% and the Z score is recorded as 1.01.

`CCCCN(C)C(=O)c1cnn(-c2nccc(-c3ccc(C)o3)n2)c1C`: the “% Inhibition” value is -18% and the Z score is 2.77.

On to `CCN(c1ccccc1)c1ccc(CNC(=O)N2CC(C)C(C)(CO)C2)cc1` (centres undefined), for which the “% Inhibition” value is on record as -10% and the Z score amounted to 1.84.

In the case of `CCC[C@H]1CN(c2nccs2)C[C@@H]1N(C)C`, the “% Inhibition” value was -13% and the Z score came to 2.57.

Take `COc1ccccc1CNCCC(C)C`: the “% Inhibition” value is recorded as -15% and the Z score was 1.7.

As to `Cn1ncc2c(NCc3ccccc3)nc(N3CCCCC3)nc21`, the “% Inhibition” value was determined as 1% and the Z score is on record as -0.27.

On to `COc1cccc(C2CC(C)CN2Cc2cnn(C)c2)c1` (centres undefined), for which the “% Inhibition” value is given as -3% and the Z score was 0.34.

As to `O=C(Cn1cc(S(=O)(=O)N2CCCCC2)ccc1=O)N1CCCc2ccccc21`, the “% Inhibition” value was -7% and the Z score is given as 1.39.

For the compound `Cc1ccc(OCC(=O)N2CCC3(CC2)C[C@@H](N2CCCCC2)CCO3)cc1`, the “% Inhibition” value was found to be 7% and the Z score is -0.87.

Regarding `CCOc1ccccc1CN1C[C@@H](CO)[C@H](NC(=O)c2cnccn2)C1`, the “% Inhibition” value is reported as -9% and the Z score is on record as 1.48.

As for `CC1CCCc2cc(-c3noc(C(C)c4cnn(C)c4)n3)c(=O)[nH]c21` (centres undefined), the “% Inhibition” value is on record as -10% and the Z score worked out at 1.14.

`C[C@H](NC(=O)c1ccc2c(=O)n3c(nc2c1)CCCCCC3)c1cccc(Cl)c1`: the “% Inhibition” value is on record as -15% and the Z score came out at 1.56.

Consider `O=S(=O)(Cl)c1ccc(-c2cnns2)cc1`, for which the “% Inhibition” value is given as -13% and the Z score is 1.77.

Turning to `COC(=O)c1ccc(CNC(=O)OC(C)(C)C)nc1`, the “% Inhibition” value is on record as 2% and the Z score was -0.28.

Turning to `Cc1ccc(CCN2C(=O)CC[C@@H]3CN(C(=O)c4ccco4)CC[C@@H]32)o1`, the “% Inhibition” value was -2% and the Z score came out at 0.4.

`O=C1CCC2(CCN(C(=O)NC3CCCC3)CC2)CN1Cc1ccncc1`: the “% Inhibition” value is recorded as -28% and the Z score is given as 2.43.

For the compound `CCNC(=O)C1(CNC(=O)c2scnc2C(C)C)CCC1`, the “% Inhibition” value was -3% and the Z score came to 0.46.

In the case of `CC(C)[C@H](NC(=O)Nc1cnc2[nH]ccc2c1)C(N)=O`, the “% Inhibition” value is recorded as -6% and the Z score stood at 0.62.
